The domain aggregation screens of Martell et al. (2025)

Test: soluble fraction after stress (log2 fold change); higher = more stays soluble; pooled small domains, quantitative proteomics
Settings: stress: 75 degC
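Also: 20 min heating vs room temperature control held 20 min.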

Row | Sequence | soluble fraction (log2)
1 | HMAKGTVKWFNETKGYGFIAPEGGKKDVFVHITALERAGLRGLKDGQAVNFDIEAGRDGRESAINITL | -0.529
2 | HMAMINTVQPILVEGLSKKNNDTLFGRTENNRVVNFEGSRSLIGNFVNIKITEALSNSLRGIIQS | -0.171
3 | HMDEEMLELVEMEMRELLSFYDFDGDNTPIIRGSALGALNGVPQWEDKVMELMDAVDTWIPLP | -0.403
4 | HMGMVGTNHRILVDGVSRKNAGHLSGRTENNRVVNFAAGEASIGDFRDVRITEALPNSLRAEVLG | -0.114
5 | HMKVDQVDDAELLDLVEMEIRELLSSYDFPGDDVPIVKGSALAAVEDRDEAIGKNSIIELMSKVDEYIPAP | 0.161
6 | HMQPVNIEPRSPLHAQVLLDRANFSPGQIDGEVGSNQRRAVSGLQAARGLKVTGELDEETWQALQAD | 0.0246
7 | HMSASHYDVLNLKKTASETEIKKAYRKLAVEYHPDKVMNLGEEYQKAAKEKFQKVQEAYEQIKLERGI | 0.0712
8 | HMVDDEELLDLVEMEVRELLDDYEFPGDDTPIIRGSALMALEDPAGPWGDKIVELFEAVDSYIP | 0.18
9 | HMYDTKLTTQDAADYLGISRPTLEKLLEQGDIPFTRVGRHRRVMLSDLQHYAVTQHDKNMQIFDAIAA | -0.0563
